Laboratory results taken from paper PMC3479024.
Results are given in words; binding and its absence hold for the method and conditions named. In cells and extracts the contact can be indirect. Some entries that bind do so weakly or less than the wild type. Values belong to the substance of their own block, whether it stands above or below them.

Protein sequences, listed by entry. Tags and fused reporters are not part of them. Lines headed by an entry give the natural chain unless they say otherwise; changes in a name come on top. Residues count along the entry.
UniProt Q07817: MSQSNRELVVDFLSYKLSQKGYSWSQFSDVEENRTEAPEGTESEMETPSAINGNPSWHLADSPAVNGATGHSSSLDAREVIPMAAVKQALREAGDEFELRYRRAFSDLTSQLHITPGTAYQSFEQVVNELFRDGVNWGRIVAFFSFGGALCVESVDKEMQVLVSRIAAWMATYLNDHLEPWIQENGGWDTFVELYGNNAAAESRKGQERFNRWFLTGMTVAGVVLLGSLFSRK
EGFP-Bcl-XL(1–195): residues 1-195 of Q07817
GST-Bcl-XL(86–195): residues 86-195 of Q07817
GST-Bcl-XL(196–233): residues 196-233 of Q07817
UniProt Q99497: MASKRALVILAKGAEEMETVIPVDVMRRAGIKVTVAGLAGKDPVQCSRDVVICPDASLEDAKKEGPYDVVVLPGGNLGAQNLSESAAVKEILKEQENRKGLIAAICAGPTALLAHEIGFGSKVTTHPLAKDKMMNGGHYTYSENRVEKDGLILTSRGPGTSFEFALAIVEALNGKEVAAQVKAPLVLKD

What was measured:
[1] = target: Bcl-XL (endogenous, H1299) (human (endogenous in H1299)) (UniProt Q07817); assay: co-IP; lysates of H1299 cells transfected with Flag-DJ-1 or Flag-DJ-1(L166P); precipitated with anti-Bcl-XL antibody or normal mouse serum on protein G Sepharose; lysis buffer 50 mM Tris-HCl pH 7.5, 150 mM NaCl, 1% NP40, 0.5% deoxycholate
[2] = target: EGFP-Bcl-XL (human) (UniProt Q07817); assay: co-IP; lysates of H1299 cells transiently transfected with EGFP, EGFP-Bcl-XL or its fragments and Flag-DJ-1(L166P); with or without 80 mJ/cm^2 UVB irradiation; precipitated with anti-GFP antibodies
[3] = target: EGFP-Bcl-XL(1–195) (human) (UniProt Q07817); assay: as above
[4] = target: EGFP-Bcl-XL(196–233) (human) (UniProt Q07817); assay: as above
[5] = target: EGFP-Bcl-XL (human) (UniProt Q07817); assay: co-IP; lysates of HEK293 cells co-transfected with EGFP or EGFP-Bcl-XL and Flag-DJ-1, Flag-DJ-1(L166P) or Flag-DJ-1(M26I); precipitated with anti-GFP antibodies
[6] = target: EGFP-Bcl-XL(1–195) (human) (UniProt Q07817); assay: co-IP; H1299 cells stably expressing EGFP-Bcl-XL or EGFP-Bcl-XL(1–195), transfected with various amounts of Flag-DJ-1(L166P), 80 mJ/cm^2 UVB irradiation; lysates precipitated with anti-GFP antibodies
[7] = target: GST-Bcl-XL(86–195) (human) (UniProt Q07817); assay: pull-down; GST, GST-Bcl-XL, GST-Bcl-XL(1–85), (86–195) or (196–233) on glutathione-agarose beads; supernatant of E. coli crude extract with His-DJ-1 or His-DJ-1(L166P); immunoblot; only the target purified
[8] = target: GST-Bcl-XL(196–233) (human) (UniProt Q07817); assay: as above

binding [1]: binds
Substance: Flag-DJ-1 (from UniProt Q99497 1-189)

binding [2]: binds
binding [3]: no binding
binding [4]: binds
binding [5]: binds
binding [1]: binds
binding [6]: no binding
Substance: Flag-DJ-1(L166P) (from UniProt Q99497 1-189)

binding [5]: binds
Substance: Flag-DJ-1(M26I) (from UniProt Q99497 1-189)

binding [7]: binds
Substance: His-DJ-1 (from UniProt Q99497 1-189)

binding [8]: binds
Substance: His-DJ-1(L166P) (from UniProt Q99497 1-189)
